Laboratory results: patent US20250000992A1 (Eli Lilly, published 2025)

Biological target: Sortilin receptor on HEK293 cells (UniProt Q99523 78-831, limits assumed)
Experiment: cell-based or functional assay

Mature Cathepsin D levels in cell lysate (ELISA), HEK293 cells, 100 ng/mL, 24 hours: 55.1
B1: Comparative Ex. 2 (8D3-PGRN HEK) (Fc fusion)
chain 1: EVQLVESGGGLVQPGNSLTLSCVASGFTFSNYGMHWIRQAPKKCLEWIAMIYYDSSKMNYADTVKGRFTISRDNSKNTLYLEMNSLRSEDTAMYYCAVPTSHYVVDVWGQGVSVTVSSGGGGSGGGGSGGGGSGGGGSGGGGSDIQMTQSPASLSASLEEIVTITCQASQDIGNWLAWYQQKPGKSPQLLIYGATSLADGVPSRFSGSRSGTQFSLKISRVQVEDIGIYYCLQAYNTPWTFGCGTKLELKGGGGQGGGGQGGGGQ[left out - human IgG1 Fc with changes]
chain 2: [left out - human IgG1 Fc with changes]GGGGSGGGGSTRCPDGQFCPVACCLDPGGASYSCCRPLLDKWPTTLSRHLGGPCQVDAHCSAGHSCIFTVSGTSSCCPFPEAVACGDGHHCCPRGFHCSADGRSCFQRSGNNSVGAIQCPDSQFECPDFSTCCVMVDGSWGCCPMPQASCCEDRVHCCPHGAFCDLVHTRCITPTGTHPLAKKLPAQRTNRAVALSSSVMCPDARSRCPDGSTCCELPSGKYGCCPMPNATCCSDHLHCCPQDTVCDLIQSKCLSKENATTDLLTKLPAHTVGDVKCDMEVSCPDGYTCCRLQSGAWGCCPFTQAVCCEDHIHCCPAGFTCDTQKGTCEQGPHQVPWMEKAPAHLSLPDPQALKRDVPCDNVSSCPSSDTCCQLTSGEWGCCPIPEAVCCSDHQHCCPQGYTCVAEGQCQRGSEIVAGLEKMPARRASLSHPRDIGCDQHTSCPVGQTCCPSLGGSWACCQLPHAVCCEDRQHCCPAGYTCNVKARSCEKEVVSAQPATFLARSPHVGVKDVECGEGHFCHDNQTCCRDNRQGWACCPYRQGVCCADRRHCCPAGFRCAARGTKCLRREAPRWDAPLRDPALRQLL
notes: Knob-and-hole Fc heterodimer; progranulin C-terminus free; also called scFv 8D3-hIgG1-LALA knob / hIgG1 LALA hole-PGRN
